Source: the supplement of paper PMC3334620
Over roughly 33,000 sequences, “E-score (-0.5 to 0.5)” has its median near -0.021; the highest 2% begin near 0.32. This is one part of the list.

Molecular target: T1, Zap1 (UniProt P47043)
T1 sequence: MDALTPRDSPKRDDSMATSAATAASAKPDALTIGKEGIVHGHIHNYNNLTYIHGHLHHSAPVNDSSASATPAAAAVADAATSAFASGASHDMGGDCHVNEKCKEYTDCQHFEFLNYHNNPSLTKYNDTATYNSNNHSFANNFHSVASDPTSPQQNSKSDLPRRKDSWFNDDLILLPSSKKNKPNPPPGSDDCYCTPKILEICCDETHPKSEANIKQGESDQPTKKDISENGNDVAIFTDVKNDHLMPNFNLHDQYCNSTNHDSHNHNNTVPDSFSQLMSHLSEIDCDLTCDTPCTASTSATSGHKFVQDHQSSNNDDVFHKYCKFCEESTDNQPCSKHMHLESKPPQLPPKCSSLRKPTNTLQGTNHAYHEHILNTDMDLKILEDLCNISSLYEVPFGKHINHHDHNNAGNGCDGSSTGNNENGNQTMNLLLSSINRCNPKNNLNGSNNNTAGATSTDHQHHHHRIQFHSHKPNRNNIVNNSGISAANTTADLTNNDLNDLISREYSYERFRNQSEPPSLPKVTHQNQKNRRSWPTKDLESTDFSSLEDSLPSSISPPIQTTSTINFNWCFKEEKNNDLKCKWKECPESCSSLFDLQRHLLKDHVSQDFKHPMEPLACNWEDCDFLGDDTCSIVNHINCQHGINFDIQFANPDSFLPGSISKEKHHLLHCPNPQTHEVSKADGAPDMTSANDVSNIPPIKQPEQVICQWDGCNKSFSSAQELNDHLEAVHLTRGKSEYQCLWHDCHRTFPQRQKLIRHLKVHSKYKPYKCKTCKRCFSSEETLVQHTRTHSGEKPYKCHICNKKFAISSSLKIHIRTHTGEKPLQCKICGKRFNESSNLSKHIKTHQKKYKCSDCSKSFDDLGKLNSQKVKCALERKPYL
Assay: PBM E-score (8-mer binding enrichment) (E-score (-0.5 to 0.5)); higher = stronger / more preferred TF binding; most listed sequences are background and not binding sites
Conditions: protein concentration: 200 nM; construct: GST-full length
How it was run: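 The E-score, a modified Wilcoxon-Mann-Whitney statistic, was computed by the Universal PBM Analysis Suite for every ungapped eight-base word pooled with its reverse complement. Scans behind it were normalised with masliner after bound GST-tagged yeast transcription factors were detected with fluorescent anti-GST. The proteins, at about 100-200 nM, had been applied to universal all-10-mer Agilent arrays made double-stranded by primer extension.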

Row | Sequence | PBM E-score
1 | GAGTACGA | -0.0801
2 | GCCATGGA | 0.0158
3 | TCGGCTCA | -0.0173
4 | GCAGTATA | 0.00974
5 | CACTCTGC | -0.146
6 | CGGGGGCC | -0.229
7 | GGTCGGTA | 0.156
8 | AGACTGAT | -0.223
9 | CGTCAAGC | -0.272
10 | GTCCGTGA | 0.0369
11 | AATGTTCA | 0.0698
12 | CAAGAAGG | 0.151
13 | GTGGACCA | 0.00386
14 | CGTTTGTC | 0.051
15 | GATTGCCC | -0.247
16 | CTAACCAC | 0.325
17 | ACTGCTTC | -0.175
18 | AGGACTAG | -0.00879
19 | GATGCACC | -0.179
20 | ATCATTTC | 0.146
21 | ATACAACG | 0.033
22 | AGTACAAG | -0.0696

Row | Sequence | PBM E-score
23 | AACACCAA | 0.158
24 | CGCGTCGA | -0.0497
25 | ACAGCACG | -0.0683
26 | AAAGGCAC | 0.0185
27 | CTAAAACC | 0.279
28 | CGGCCTAG | -0.048
29 | ACTACTCA | 0.0254
30 | ACGTACGT | -0.268
31 | ACCGAGCG | -0.0704
32 | ATTAAAGA | 0.245
33 | ATGTTTGC | 0.0328
34 | TCGTTCCA | -0.19
35 | AGTACTGG | -0.141
36 | ACATCGTA | -0.127
37 | ACATACGA | 0.0717
38 | TCCGTGCA | -0.0954
39 | GTGATGGA | -0.0707
40 | TAGTCCAA | -0.09
41 | ACACAGCG | -0.0243
42 | AGGCCTGG | -0.232
43 | CGTTCCAC | -0.356
44 | CAGACTAC | -0.189

Row | Sequence | PBM E-score
45 | CTTAATTA | 0.0915
46 | CAACCTTA | 0.286
47 | ATAGACTC | -0.159
48 | GAGTAGCA | -0.157
49 | CAAGCCAA | -0.0144
50 | CATTTTCA | 0.167
51 | ACACTCCC | -0.357
52 | GGTCCGTA | -0.00645
53 | CAGGAATA | -0.00899
54 | ATTTAATC | 0.161
55 | CCAAGTTA | 0.0627
56 | TTCCGAAA | 0.0636
57 | ATCATAAA | 0.0839
58 | CGGACCTA | 0.00172
59 | GGAATAAA | 0.111
60 | GGGTCCAA | -0.0225
61 | TAAGTACA | 0.096
62 | AATGGCCT | 0.0949
63 | GGATGGAA | -0.126
64 | ACAGCGTC | -0.0965
65 | AGGAGCCT | -0.208
66 | CACTGGAG | -0.202

Row | Sequence | PBM E-score
67 | ATCAGCAG | -0.0531
68 | CGGACGCC | -0.0778
69 | ACATCCGG | 0.0431
70 | GCTTGGGA | -0.205
71 | AATTTTAA | 0.188
72 | GGTTCGCA | -0.115
73 | CTGGCTTA | -0.205
74 | GGTAAAGA | 0.0277
75 | CTGTACCC | 0.191
76 | ATTAAATG | 0.175
77 | AATGAGTA | 0.0768
78 | ATAGCCAA | 0.0173
79 | GCGGTGCA | -0.304
80 | CGTCTGAA | -0.151
81 | ACCTTCCG | 0.152
82 | AAATGCCC | -0.125
83 | CTATTAGC | 0.0361
84 | ACGATTTG | -0.101
85 | AACTGGGT | 0.0979
86 | AATTTAAG | 0.0378
